Reference: PMC4336329 (PLoS ONE, 2015)
In all, about 310,000 compounds went through this assay and about 2,200 (0.71%) showed an effect of 50% or more. The effect is printed as a negative number. This is one part of the list.

Target: human ether-à-go-go-related gene (hERG) potassium channel (human, UniProt Q12809)
Experiment: primary screen, population patch clamp on CHO cells stably expressing hERG

Chain of human ether-à-go-go-related gene (hERG) potassium channel (Q12809 whole entry, looked up): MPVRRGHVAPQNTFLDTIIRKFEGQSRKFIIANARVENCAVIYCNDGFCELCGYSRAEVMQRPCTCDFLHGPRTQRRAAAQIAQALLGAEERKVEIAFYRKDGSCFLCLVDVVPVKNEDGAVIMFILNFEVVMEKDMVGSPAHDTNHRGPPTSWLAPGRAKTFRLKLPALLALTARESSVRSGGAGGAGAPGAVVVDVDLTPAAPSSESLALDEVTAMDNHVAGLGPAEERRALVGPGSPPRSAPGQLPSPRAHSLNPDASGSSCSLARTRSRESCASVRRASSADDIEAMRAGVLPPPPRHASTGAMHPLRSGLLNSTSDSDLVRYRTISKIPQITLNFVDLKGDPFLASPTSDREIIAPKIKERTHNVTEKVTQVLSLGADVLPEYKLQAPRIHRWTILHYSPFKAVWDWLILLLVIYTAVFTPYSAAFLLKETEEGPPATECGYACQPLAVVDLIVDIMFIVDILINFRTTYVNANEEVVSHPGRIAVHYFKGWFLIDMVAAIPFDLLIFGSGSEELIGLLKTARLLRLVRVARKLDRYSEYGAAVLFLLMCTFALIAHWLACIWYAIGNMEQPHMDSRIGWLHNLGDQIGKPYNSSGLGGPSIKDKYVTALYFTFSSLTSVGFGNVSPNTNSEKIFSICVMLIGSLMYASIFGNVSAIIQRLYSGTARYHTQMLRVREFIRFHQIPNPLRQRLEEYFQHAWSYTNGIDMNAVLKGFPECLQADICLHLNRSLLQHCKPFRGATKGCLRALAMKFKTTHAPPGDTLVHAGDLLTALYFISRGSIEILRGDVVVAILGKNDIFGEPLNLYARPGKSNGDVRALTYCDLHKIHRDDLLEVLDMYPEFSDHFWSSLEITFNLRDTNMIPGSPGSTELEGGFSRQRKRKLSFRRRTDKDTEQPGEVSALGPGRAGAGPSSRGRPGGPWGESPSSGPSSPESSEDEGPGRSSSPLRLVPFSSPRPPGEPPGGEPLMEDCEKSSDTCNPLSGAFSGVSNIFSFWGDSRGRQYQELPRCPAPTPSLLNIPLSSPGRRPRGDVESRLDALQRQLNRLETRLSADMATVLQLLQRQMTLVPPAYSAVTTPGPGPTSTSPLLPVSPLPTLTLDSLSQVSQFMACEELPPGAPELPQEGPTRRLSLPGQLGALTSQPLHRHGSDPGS

Point of comparison: `CCn1c(=O)[nH]c2cc(C(=O)Nc3cc(C)cc(C)c3)ccc2c1=O`, “hERG current change (%, negative = inhibition) at 1uM” value 13%. Against it:
- N#CCSc1nc2ccccc2c(=O)n1CCCC(=O)NCc1ccco1 — lower, 2.78%
- Cc1ccnc(SC2CC(=O)N(c3ccc(Cl)cc3)C2=O)n1 (centres unmarked) — higher, 19.2%
- COC(=O)N/N=C/c1cccc([N+](=O)[O-])c1 — higher, 13.1%
- O=C(O)CC1(CC(=O)Nc2cc(F)ccc2Cl)CCCCC1 — lower, 2.97%
- O=C(NCC1OCCc2ccccc21)c1cc(COc2c(F)cccc2F)on1 (centres unmarked) — lower, 2.9%
- COCCn1c(=O)c2cc3c(=O)n(CCOC)c(=O)c3cc2c1=O — lower, 5.45%
- Cc1oc(-c2ccccc2F)nc1CS(=O)(=O)CC(=O)N1CCOCC1 — higher, 15.8%
- CC1CN(c2ccc(S(=O)(=O)N3CCOCC3)cn2)CC(C)O1 (centres unmarked) — higher, 17.3%
- CCCCn1c(N)c(N(CCOC)C(=O)C2CCN(S(=O)(=O)c3ccc(C)cc3)CC2)c(=O)[nH]c1=O — lower, 9.38%
- COc1ccccc1OCC(=O)Nc1ccccc1C(=O)N1CCCCC1 — higher, 14.3%
- Cc1ccc(NC2Sc3ccccc3NC2=O)cc1 (centres unmarked) — lower, 8.68%
- CC1CCCC(C)N1C(=O)COC(=O)Cc1c[nH]c2ccccc12 (centres unmarked) — higher, 14.5%
- CCOC(=O)CNC(=O)C1CCCc2c1[nH]c1ccc(Cl)cc21 (centres unmarked) — lower, 10.8%
- CCCCn1c(N)c(N(CC(C)C)C(=O)CCCSc2nncs2)c(=O)[nH]c1=O — lower, 9.44%
- O=C(Nc1sc2c(c1C(=O)N1CCOCC1)CCCCC2)c1cccnc1 — lower, 11.4%
- CCCn1c(-c2cccs2)nc2ccccc21 — lower, -4.48%
- C=CCn1c(O)c(C(CC)=NCCCO)c(=O)[nH]c1=O — lower, 7.51%
- O=C(CCC1CCCC1)Nc1cc(C(F)(F)F)ccc1N1CCOCC1 — lower, 11.4%
- COCCCNC(=O)CCCn1c(=O)c2ccccc2n(CC(=O)Nc2c(C)cccc2C)c1=O — higher, 19.3%
- CCN(CC(=O)NCc1ccc(Cl)cc1)C(=O)c1ccc(S(=O)(=O)N(C)C)cc1 — lower, 2.21%
- COc1cc(=O)[nH]c(SC(C)C(=O)Nc2nc3c(s2)CCCC3)n1 (centres unmarked) — higher, 17.6%
- O=C(O)c1ccccc1C(=O)Nc1n[nH]c(=S)s1 — higher, 13.6%
- O=[N+]([O-])c1cc(Cl)cc(/C=N\Nc2ccccn2)c1O — lower, 11%
- O=C1C2C3C=CC(C3)C2C(=O)N1Cc1ccc(CN2C(=O)C3C4C=CC(C4)C3C2=O)cc1 (centres unmarked) — lower, -1.38%
- Cc1[nH]nc2c1C(c1ccc(F)cc1)C1=C(CC(C)(C)CC1=O)N2 (centres unmarked) — lower, 9.66%
- COC(=O)[C@H](C)NC(=O)Nc1cc(OC)ccc1OC — lower, 1.76%
- COc1ccc(S(=O)(=O)Nc2ccccc2C)cc1 — lower, 11.3%
- COC(=O)c1cn(N(C)c2ncc(C(F)(F)F)cc2Cl)c(=O)c2ccccc12 — lower, 10.3%
- COc1ccc(OC)c(NC(=O)Nc2cccc(Cn3cccn3)c2)c1 — lower, -3.71%
- CN(C)Cc1c(-c2ccc(Cl)cc2)nc2ccccn12 — higher, 16.7%
- Cc1cc(C(=O)NC2CCN(Cc3ccccc3)CC2)n[nH]1 — lower, 9.06%
- COc1ccc(OCc2cc(C(=O)N3CCN(CC(=O)N(C)C)CC3)no2)c(Cl)c1 — lower, 5.1%
- Cc1ccnc(Nc2nc3ccccc3o2)n1 — lower, 4.58%
- Cc1nc2ccccc2c(=O)n1/N=C/c1c(O)ccc2oc3c(c12)CCCC3 — lower, 8.14%
- CCOc1ncccc1C(=O)NCc1cccc(OC)c1 — lower, 10.6%
- O=C(Nc1nc(-c2cccs2)cs1)c1cccc(S(=O)(=O)N2CCCCC2)c1 — lower, 8.2%
- COc1ccc(OC)c(-c2csc(N3CCC(c4ccccc4)CC3)n2)c1 — lower, 12.3%
- O=C(NCc1ccco1)c1ccc(Cl)nc1 — lower, 10.8%
- COc1ccc(CN2C(=O)CN(C3CCCCCC3)C(=O)C2c2ccc(OC)c(OC)c2)cc1 (centres unmarked) — lower, -6.87%
- CC(=O)c1ccc(N2CCN(C(=S)Nc3ccc(Cl)c(Cl)c3)CC2)cc1 — higher, 18.3%
- CCOC(=O)C(C)Oc1cccc2c(=O)n(CC(=O)NCc3ccc(F)cc3)ccc12 (centres unmarked) — lower, 5.51%
- C=CCn1c(Cc2cccs2)nnc1SCC(=O)c1ccc2ccccc2c1 — lower, 3.18%
- Cc1cccc(NC(=O)CN2C(=O)NC(Cc3ccccc3)C2=O)c1 (centres unmarked) — lower, 7.75%
- CSc1ncc(CN2CCCC(C(=O)Nc3ccc(-c4ccco4)cc3)C2)cn1 (centres unmarked) — higher, 16%
- O=C(CCC1CCCCC1)Nc1c2c(nn1-c1ccc(F)cc1)CS(=O)(=O)C2 — lower, -12.5%
- O=C1c2ccccc2S(=O)(=O)c2cc(C(=O)N(c3ccccn3)c3ccccn3)ccc21 — higher, 13.9%
- CCOC(=O)c1ccc(N2N=C(C)/C(=C/C=C/c3ccco3)C2=O)cc1 — lower, -4.65%
- O=C(Nc1ccccc1Cl)c1ccc(S(=O)(=O)NCC2CCCO2)cc1 (centres unmarked) — lower, -7.62%
- CC1(C)C(=O)OC(c2ccc([N+](=O)[O-])cc2)C(C)(C)C1=O (centres unmarked) — higher, 17%
- COc1ccc(OC)c(S(=O)(=O)NCCCc2ccccc2)c1 — higher, 15%
- CC(=O)Nc1cccc(C(=O)Nc2cccnc2)c1 — lower, 12%
- CC(C)c1nnc(NC(=O)COc2ccccc2[N+](=O)[O-])s1 — lower, 0.183%
- CCOc1cccc(-c2nnc3sc(-c4ccco4)nn23)c1 — lower, 12.1%
- Cc1ccc(C(=O)NC2CCN(CC(=O)Nc3ccccc3Cl)CC2)cc1 — lower, -16.4%
- CC(=O)Nc1ccc(NC(=O)C(F)(F)F)cc1 — higher, 19.1%
- CCOc1ccc(C(=O)c2cc3ccc(O)cc3oc2=O)cc1 — higher, 13.1%
- OCc1nc2ccccc2n1CC(O)Cn1ccc2ccccc21 (centres unmarked) — lower, 11.2%
- CCNCC(O)c1cccc(O)c1 (centres unmarked) — lower, 10.8%
- CCCCCCNC(=O)c1cc(S(=O)(=O)N2CCc3ccccc32)ccc1F — higher, 16.6%
- COc1ccccc1N1CCN(C(=O)c2cc3cc(C)ccc3[nH]2)CC1 — lower, 9.45%
- CCc1noc(C)c1C(=O)Nc1nc(-c2ccc(OC)cc2)cs1 — lower, 1.33%
- COc1cccc(/C=N/N2CCN(c3ccncc3S(=O)(=O)N3CCCCC3)CC2)c1 — lower, 11.5%
- CCc1ccc(CN2CCC(Oc3ccc(C(=O)N4CCCCC4)cc3)CC2)cc1 — lower, -61.5%
- COc1cc(C2NC(C(=O)O)Cc3c2[nH]c2ccccc32)cc(OC)c1OC (centres unmarked) — lower, 6.63%
- CC(=O)c1c(OC(=O)c2ccco2)c2ccccc2n1C — lower, 9.09%
- CCOc1cc(/C=C2\C(=O)N(Cc3ccco3)C(C)=C2C(=O)OC)ccc1O — lower, 2.04%
- Cc1ccc(-c2nnn(CC(=O)N(Cc3ccc(F)cc3)C(C(=O)NC3CCCC3)c3ccncc3)n2)o1 (centres unmarked) — lower, 9.15%
- COc1cc(/C=N/NC(=S)NCCN2CCOCC2)cc(OC)c1OC — lower, 0.872%
- CC(=O)Oc1ccc2nc(/C=C/c3ccc(C=O)cc3)oc(=O)c2c1 — lower, 12.6%
- Cn1cccc1/C=N/n1c(-c2ccco2)n[nH]c1=S — lower, 8.26%
- CCOC(=O)C(=NCC1CCCO1)NNc1cc(Cl)ccc1Cl (centres unmarked) — lower, 2.2%
- CCC(C)(C)NC(=O)/C=C/c1cc(OC)c(OC)c(S(=O)(=O)N2CCc3ccccc32)c1 — lower, 2.79%
- COC(=O)C1=C(c2ccc(S(C)(=O)=O)cc2)C[C@@H]2CC[C@H]1N2C(=O)NCCCOC(C)C — higher, 13.2%
- COc1ccc2c(c1)OCC1=C2CCC2(C)C(=O)CC=C12 (centres unmarked) — lower, 10.6%
- N#CCc1c(C#N)c(N)nc(N2CCN(S(=O)(=O)c3ccccc3F)CC2)c1C#N — lower, 6.36%
- CC(=O)c1ccc(NC(=O)CN2CCN(c3ccccc3)CC2)cc1.Cl — lower, 3.51%
- O=[N+]([O-])c1ccccc1S(=O)(=O)N1CCN(c2ccc(F)cc2)CC1 — lower, 1.19%
- CN1CCC(OC(=O)Cc2ccc(Cl)cc2)CC1.Cl — lower, 9.51%
- Cc1ccc(S(=O)(=O)CCc2nnc(NC(=O)c3cnccn3)s2)cc1 — higher, 15%
- CC1CCCN(C/C(O)=C(\C#N)c2nc3ccccc3[nH]2)C1 (centres unmarked) — lower, -8.95%
- Nc1c(Cl)ncnc1N1CCOCC1 — higher, 14.1%
- COc1ccc(-c2nn(-c3ccccc3)cc2C(=O)NC2CCC(C)CC2)cc1 (centres unmarked) — higher, 14.9%
- Cc1ccc(S(=O)(=O)N(CC(=O)NCc2ccncc2)Cc2ccccc2F)cc1 — lower, -53.2%
- O=C(CC1Sc2ncnn2C1=O)Nc1ccc(Cl)cc1 (centres unmarked) — lower, 7.42%
- COc1ccc(C(=O)CN2CCN(c3ncccn3)CC2)cc1.O=C(O)C(=O)O — higher, 13.5%
- O=C(c1cccc([N+](=O)[O-])c1)c1ccc2c(c1)C(=O)N(c1c[nH]c(=O)[nH]c1=O)C2=O — lower, 11.7%
- COc1cc(-c2nc(CN3CCN(CC(C)C)C(=O)[C@@H]3C)c(C)o2)ccc1F — lower, -2.5%
- COc1ccc(N2CCN(C(=O)CCC(=O)N3CC(C)Oc4ccc(C)cc43)CC2)cc1 (centres unmarked) — lower, -2.69%
